Our source for the binding signal values is article PMC7819943, “Rice protein-binding microarrays: a tool to detect cis-acting elements near promoter regions in rice”.

The other results are listed elsewhere or left out.

This experiment has as its target T1, OsWOX13 (Oryza sativa, UniProt Q5QMM3 1-267).
T1 sequence: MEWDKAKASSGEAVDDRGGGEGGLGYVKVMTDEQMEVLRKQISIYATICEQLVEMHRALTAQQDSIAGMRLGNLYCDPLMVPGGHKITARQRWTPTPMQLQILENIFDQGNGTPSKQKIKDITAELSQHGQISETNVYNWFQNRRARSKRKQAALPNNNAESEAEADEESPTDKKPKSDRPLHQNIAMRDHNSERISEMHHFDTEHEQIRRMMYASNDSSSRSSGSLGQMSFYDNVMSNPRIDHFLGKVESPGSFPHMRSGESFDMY
The experiment can be described thus: protein-binding microarray (RPBM); PBS, 2% BSA, 51.3 ng/ul salmon testes DNA, 50 uM zinc acetate, 200 nM TF, 25 C, 1 h; high values mean tight binding. As to conditions: protein: recombinant; tags: N-terminal polyhistidine and DsRed monomer fusion (pET32a); label: CyDye5-dUTP incorporated in the synthesized complementary strand; 3' TTTTT single-stranded linker to array surface; dsDNA, one strand shown. Summed up:
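Transcription factors were each fused at the N-terminus to a polyhistidine tag plus DsRed and expressed in E. coli BL21-CodonPlus before Ni–NTA purification. Binding to a double-stranded custom Agilent array was carried out with 200 nM protein at 25 °C for 1 h in PBS, 2% BSA, salmon testes DNA and 50 µM zinc acetate. The binding signal is per-feature fluorescence intensity, in arbitrary units, on an Axon 4000B scanner.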
Regarding “GCAAATTTAAGCCAAATAGAGATAATAGTCTTGGATACCGCGGAGTCACCTAGTGCAG”, the binding signal was 3600 fluorescence intensity (a.u.).
Regarding “AGCTAATTGCCTCCTGCTAGCAAGATACTTAATAGTTGCACGGAGTCACCTAGTGCAG”, the binding signal was 33600 fluorescence intensity (a.u.).
“ACTTTTATTTAATTAAATTAATCTGTTGAGATTATCATTTCGGAGTCACCTAGTGCAG”: the binding signal was 12700 fluorescence intensity (a.u.).
With “TCTGGGTGATTTGTTGCAAAAGAATATTTTAATTCACTGCCGGAGTCACCTAGTGCAG”, the binding signal was 14000 fluorescence intensity (a.u.).
With “CTGCAAATCATGGCGAAATGAACTAAGAAACTTCTTGTTACGGAGTCACCTAGTGCAG” the figure was 4900 fluorescence intensity (a.u.).
Consider “AGGCACAAATTGAACCAAACAGCACCTGACCATTGTATCCCGGAGTCACCTAGTGCAG”, for which the binding signal is 20800 fluorescence intensity (a.u.).
Regarding “TACATGATGGGAAAATAGACTTTTGCAGCAGAGATTGAATCGGAGTCACCTAGTGCAG”, the binding signal is 10200 fluorescence intensity (a.u.).
“CCGATTGAACCAGGATAAACTGTTGAACCAGATCAGATGGCGGAGTCACCTAGTGCAG”: the binding signal is 4760 fluorescence intensity (a.u.).
With “CGTAATAAACTAAGTTCTTTGATATTGCCGTAATTTTCAACGGAGTCACCTAGTGCAG” the figure was 3800 fluorescence intensity (a.u.); with “ATCGGTGGTGGTGGTGGTGGTGGCCATGAGTCTCGTTTGACGGAGTCACCTAGTGCAG”, 3390 fluorescence intensity (a.u.); with “CAAATTACTAAATTAACAAGTGTTTCCTTTAGACCATAGGCGGAGTCACCTAGTGCAG”, 26500 fluorescence intensity (a.u.).
As for “CTAGATTAAATCATACTATTTCATATGGTAACTGTAGTTGCGGAGTCACCTAGTGCAG”, the binding signal is 25500 fluorescence intensity (a.u.).
For “TAAAATTGGCATATATACAAGGCTGAAAGTTCACCCCGGACGGAGTCACCTAGTGCAG”, the binding signal was 13100 fluorescence intensity (a.u.).
“CATGCAAATTAGTTAGTTAACTACAACAATTTGCTGAATTCGGAGTCACCTAGTGCAG”: the binding signal was 13700 fluorescence intensity (a.u.).
In the case of “TTAAAACTAATTAAAGTTAAATGGTCATGTCTTAACATGTCGGAGTCACCTAGTGCAG”, the binding signal is 22400 fluorescence intensity (a.u.).
“CATCCCAGGTCTTAATTAAGCTAAGTCAGTCCACACAATGCGGAGTCACCTAGTGCAG”: the binding signal was 3280 fluorescence intensity (a.u.).
In the case of “AATGACTGCCACCACCACTCGATATCCAACTAGGTGTGCTCGGAGTCACCTAGTGCAG”, the binding signal is 7280 fluorescence intensity (a.u.).
On to “CCTACACAACGACTGGTGACTGACTGACTGCATGCAAGGCCGGAGTCACCTAGTGCAG”, for which the binding signal was 3220 fluorescence intensity (a.u.).
On to “TTAAATTGAATAATTTTAAAGTTATTTATAATCAAAGCTACGGAGTCACCTAGTGCAG”, for which the binding signal is 22700 fluorescence intensity (a.u.).
Take “AAATTGTATTCCTAATTGGACTCTCTTTTCCTTTTCTAATCGGAGTCACCTAGTGCAG”: the binding signal was 3430 fluorescence intensity (a.u.).
For the sequence “TGTGCAGTGACAAGAAATTTCCTTGCGTCTCTTTGTTTCACGGAGTCACCTAGTGCAG”, the binding signal was 3640 fluorescence intensity (a.u.).
With “TATTTTGATTGGAGCGTCTATTTAATATTGGGCCCTATAACGGAGTCACCTAGTGCAG” the figure was 31900 fluorescence intensity (a.u.).
As for “GGTATATGTAATTTGAATTCCGTATCAATTGTTTTGCTAGCGGAGTCACCTAGTGCAG”, the binding signal is 4910 fluorescence intensity (a.u.).
With “TAGCAAACTGATAGTTTTGTCACTAAAGTTATAGTTTTCTCGGAGTCACCTAGTGCAG”, the binding signal was 3340 fluorescence intensity (a.u.).
As for “AATTGATTTAATTTGGGACGGAGGAAATAGTACAATTCACCGGAGTCACCTAGTGCAG”, the figure is 41900 fluorescence intensity (a.u.); as for “ACTTGTTGATTTATATACCCTTGCTGTCTATGTGAATTTCCGGAGTCACCTAGTGCAG”, 10100 fluorescence intensity (a.u.).
Take “AACAAATGCATAATTTATCCACTTCAAGCCCTGGGAAAATCGGAGTCACCTAGTGCAG”: the binding signal is 3680 fluorescence intensity (a.u.).
Turning to “TGTAAACTACACAGATTAATCTTTGCTAGTATACATATAGCGGAGTCACCTAGTGCAG”, the binding signal is 3150 fluorescence intensity (a.u.).
In the case of “AGGCCCAATTACTGATCGAAATTTCGATGATTTCGATCGACGGAGTCACCTAGTGCAG”, the binding signal is 18500 fluorescence intensity (a.u.).
With “CCAATTGTTGATGATTTGCAGGATGGACCTGCTAATTAATCGGAGTCACCTAGTGCAG”, the binding signal is 10300 fluorescence intensity (a.u.).
“TCTCATTTAATATTCCCATCAGTCGTACGTGCACACCAGTCGGAGTCACCTAGTGCAG”: the binding signal was 3330 fluorescence intensity (a.u.).
Consider “GGATAAATTCCCTTTAATTGATCCGATTCCATCGAGAACACGGAGTCACCTAGTGCAG”, for which the binding signal is 27000 fluorescence intensity (a.u.).
On to “CTAACCTGATAGAAGTACATGATTAATCGATGATTAGCCGCGGAGTCACCTAGTGCAG”, for which the binding signal is 27100 fluorescence intensity (a.u.).
Turning to “TCGTTGAAGTAGATTGAATCTATACGTACAGCGCGATTTACGGAGTCACCTAGTGCAG”, the binding signal was 4570 fluorescence intensity (a.u.).
Take “AGGATAATTTCGAATGTGAATGTGTTTATAAGAATAACAACGGAGTCACCTAGTGCAG”: the binding signal is 4080 fluorescence intensity (a.u.).
As to “GCAAAATCAATCTAGGGTTTGCCTCCTACTCTGTACTGCGCGGAGTCACCTAGTGCAG”, the binding signal was 4870 fluorescence intensity (a.u.).
On to “GTAATTAATTTTAACATCATATCATCTCATAGAGAGCACGCGGAGTCACCTAGTGCAG”, for which the binding signal is 50100 fluorescence intensity (a.u.).
Consider “TAGCCAATCTAATAGCTCATTCATATAATAATTACATACTCGGAGTCACCTAGTGCAG”, for which the binding signal is 4410 fluorescence intensity (a.u.).
For the sequence “TTGTGCAGATTGTGACTAATTTACGAGATGAATCTTTTGACGGAGTCACCTAGTGCAG”, the binding signal is 11000 fluorescence intensity (a.u.).
Turning to “ATTTGACATATATGTTAAAATCTTCACCTAAGATTTTCGTCGGAGTCACCTAGTGCAG”, the binding signal was 7360 fluorescence intensity (a.u.).
For “GTCTTAGATTATCAAATCATTTACAAACAAGAACATCCGTCGGAGTCACCTAGTGCAG”, the binding signal was 28300 fluorescence intensity (a.u.).
Take “CACTGAAAGAATAATTAAACGTAATTGCGAGTACATGTGTCGGAGTCACCTAGTGCAG”: the binding signal is 31000 fluorescence intensity (a.u.).
